Results as given in PubChem BioAssay AID1240 (Sanford-Burnham Center for Chemical Genomics, 2008).
The campaign covered roughly 50,000 compounds. About 800 (1.6%) showed an effect of 50% or more. This is one part of the list.

Target: Bcl-2-like protein 10 (Homo sapiens) (UniProt Q9HD36)
Assay: Phenotype converters, Bcl-B/TR3 peptide binding displacement, primary biochemical FP (AID 1240);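 note: 0% = Bcl-B with tracer peptide and DMSO and 100% = tracer peptide lacking Bcl-B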
Conditions: GST-Bcl-B / FITC-TR3 peptide fluorescence polarization; stronger effect = higher value; compound at 3.75 mg/L

Chain of UniProt Q9HD36 (Q9HD36 whole entry, looked up): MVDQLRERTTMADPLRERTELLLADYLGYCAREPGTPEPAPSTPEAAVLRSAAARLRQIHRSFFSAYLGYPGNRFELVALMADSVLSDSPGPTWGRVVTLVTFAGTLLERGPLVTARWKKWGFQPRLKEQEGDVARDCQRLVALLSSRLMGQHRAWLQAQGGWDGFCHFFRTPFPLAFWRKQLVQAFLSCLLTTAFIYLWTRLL

Compared with COc1ccc(C2CC(c3ccc([N+](=O)[O-])cc3)=NN2)cc1 (stereo not given), COc1ccc(C2=NN(C(=O)CCC(=O)O)C(c3ccc(Br)cc3)C2)cc1 (stereo not given) is lower in displacement: 6.1% for the first, 4.5% for the second.

Compared with C=CCn1c(C)c(C(C)=O)c(N2CCCC2)nc1=S, C=C(C)CSc1nc2sc3c(c2c(=O)n1CC(=C)C)CCC3 is higher in displacement: 2.1% for the first, 4.9% for the second.

Going from O=[N+]([O-])c1ccc(S(=O)(=O)N(CCO)CCO)cc1 to NS(=O)(=O)c1cccc(NC(=O)/C=C/c2cccc([N+](=O)[O-])c2)c1, the displacement rises from -7.3% to -4.5%.

First: CCOC(=O)C1=C(O)/C(=C/c2cccnc2)SC1=Nc1ccc([N+](=O)[O-])cc1
Second: CCN(CC)c1ccc(NC(=O)c2ccc(-c3ccc([N+](=O)[O-])cc3)o2)cc1
The displacement of the first is higher: 55.2% for the first, -1.5% for the second.

First: COc1ccc(C(=O)c2ccc(OC)c3cccc(O)c23)cc1OC
Second: COc1cc(NC(=O)COc2ccc(-c3ccc(C)cc3)cc2)c(OC)cc1Cl
The displacement of the first is higher: -3.7% for the first, -3.8% for the second.

Compared with S=C(NCCOCCOCCNC(=S)Nc1ccccc1)Nc1ccccc1, Cc1sc(NC(=O)Nc2ccccc2)nc1-c1ccccc1 is lower in displacement: 11.3% for the first, -8% for the second.

Going from COc1cc(/C=C2/C=C(c3ccccc3)OC2=O)ccc1C to COc1ccc2c(c1)CC/C(=C\c1ccccc1)C2=O, the displacement rises from -4.5% to 5.7%.

Going from CC1=Nc2cc([N+](=O)[O-])ccc2NC(=O)C1 to Cc1occc1C(=O)Nc1ccc([N+](=O)[O-])cc1Cl, the displacement rises from 2.1% to 24.9%.

First: CC(C(=O)NCc1ccncc1)N1C(=O)c2ccccc2C1=O (stereo not given)
Second: CC(C(=O)N1c2ccccc2Sc2ccc(C(F)(F)F)cc21)N1C(=O)c2ccccc2C1=O (stereo not given)
The displacement of the first is lower: -2.3% for the first, 2.2% for the second.

Going from Cc1cc(C)cc(CSCC(=O)Nc2cc(Cl)ccc2Cl)c1 to Cc1cc(C)nc(SCC(=O)N/N=C/c2ccc(Cl)cc2Cl)n1, the displacement rises from -7.2% to 4.5%.

Compared with CCOc1ccccc1N1CCN(C(=O)CCc2ccccc2)CC1, COc1ccc(CN2CCN(C(=O)CC(C)C)CC2)cc1OCc1ccccc1 is higher in displacement: -4.4% for the first, 4% for the second.

First: O=C1N/C(=N/N=C/c2cccs2)SC1Cc1ccc(F)cc1 (stereo not given)
Second: O=C(c1ccc(F)cc1)N1CCN(c2c(Cl)cccc2[N+](=O)[O-])CC1
The displacement of the first is lower: -13.9% for the first, 2.7% for the second.

Going from Cc1cc(C)nc(SCc2ccc(Cl)cc2)n1 to CCc1ccc2oc(-c3ccc(C)c(N)c3)nc2c1, the displacement rises from -5.9% to 0.4%.

Compared with O=C(NCc1ccco1)/C(=C/c1cccc2ccccc12)NC(=O)c1ccccc1, O=S1(=O)N=C(Oc2cccc3ccccc23)c2ccccc21 is lower in displacement: -6% for the first, -7.8% for the second.

Going from CC(C)c1ccc([N+](=O)[O-])cc1S(=O)(=O)N1CCN(c2ccccc2)CC1 to O=S(=O)(Cc1ccccc1)N1CCN(c2cccc(Cl)c2)CC1, the displacement rises from -4.7% to 7.1%.

Compared with CC(C)(C)c1ccc(OCC(=O)Nc2ccccc2C(=O)Nc2ccc(C(=O)O)cc2)cc1, CC(=O)Nc1ccc(C(=O)Nc2ccc(Br)cc2)cc1 is lower in displacement: 11% for the first, 3% for the second.

First: COc1ccc(CNc2ccc(C)c(C)c2)c(OC)c1C
Second: COc1ccc(OC)c(NC(=O)c2ccc([N+](=O)[O-])cc2Cl)c1
The displacement of the first is higher: 11.8% for the first, -4.7% for the second.

Compared with O=C1CC(Sc2ccc3ccccc3c2)C(=O)N1c1ccccc1 (stereo not given), CC1CC(Nc2ccccc2)c2ccccc2N1C(=O)COc1ccc2ccccc2c1 (stereo not given) is lower in displacement: -2.2% for the first, -18.1% for the second.

First: CC(C)c1ccc(N2C(=O)NC(=O)/C(=C/c3ccc(O)cc3)C2=O)cc1
Second: COc1ccc(N2C(=O)/C(=C\c3ccsc3)SC2=S)cc1
The displacement of the first is lower: -14% for the first, 11.4% for the second.

First: CCOC(=O)c1ccc(-c2ccc(/C=C3\C(=O)N(c4ccc(S(N)(=O)=O)cc4)N=C3C)o2)cc1
Second: CCOC(=O)c1ccc(NC(=O)CN(c2cccc(Cl)c2)S(=O)(=O)c2ccccc2)cc1
The displacement of the first is higher: 15.7% for the first, 6.6% for the second.

Compared with O=C(/C=C/c1ccco1)NCC1CCCO1 (stereo not given), NC(=O)c1c(NC(=O)/C=C/c2ccccc2)sc2c1CCC2 is lower in displacement: -0.8% for the first, -3.5% for the second.

First: CCc1cccc(C)c1NC(=O)C1C2CCC(O2)C1C(=O)O (stereo not given)
Second: CCC(=O)c1ccc(N2CCC(C)CC2)c(F)c1
The displacement of the first is lower: -8.3% for the first, -4.2% for the second.

Compared with COc1cccc(OCCOc2ccccc2/C=C2/SC(=S)N(c3ccccc3)C2=O)c1, CC(C)Oc1ccccc1NC(=O)CSc1nnc(-c2cccc(F)c2)n1-c1ccccc1 is lower in displacement: 11.4% for the first, -16.2% for the second.

Going from C/C(CC(=O)Nc1ccc(Cl)c(C(F)(F)F)c1)=N\NC(=O)c1cnccn1 to CCC(=O)Nc1ccc(C(=O)Nc2c[nH]c(=O)[nH]c2=O)cc1, the displacement rises from -39.5% to 4.6%.

Compared with CCOc1ccc(NC(=O)/C=C/c2ccccc2)cc1, CCOc1ccc(NC(=O)CN(c2ccc(C)c(Cl)c2)S(C)(=O)=O)cc1 is lower in displacement: 13.2% for the first, 6.8% for the second.

Going from CN1C(=O)/C(=N/OC(=O)c2ccc(Br)cc2)c2ccccc21 to Cc1ccccc1N1C(=O)c2ccc(C(=O)O)cc2C1=O, the displacement rises from -11% to -3.3%.

First: O=C(O)c1c(Cl)c(C(=O)O)c(C(=O)O)c(Cl)c1C(=O)O
Second: CC(C)CN1C(=O)c2ccc(C(=O)Nc3ccc(O)cc3C(=O)O)cc2C1=O
The displacement of the first is lower: -2.4% for the first, 10.9% for the second.

Compared with C=CCc1cccc(/C=N/NC(=O)C(C)Nc2ccc(Br)cc2)c1O (stereo not given), CCOc1cccc(/C=N\NC(=O)Cc2cccn2C)c1O is lower in displacement: -13.2% for the first, -33.2% for the second.

First: O=C(/C=C\Nc1ccccn1)c1ccc2c(c1)OCO2
Second: O=C(c1ccccc1)c1cc2c(cc1Br)OCCCO2
The displacement of the first is higher: 21.6% for the first, 1.1% for the second.

First: Nc1ccc[n+](CC(=O)c2ccccc2)c1
Second: O=C(Nc1ccccc1Cl)c1ccco1
The displacement of the first is higher: 16.1% for the first, 9% for the second.

First: CC(C)C(=O)N/N=C1/CC2CCC1(C)C2(C)C (stereo not given)
Second: CC(C)CNC(=O)c1ccc(I)cc1
The displacement of the first is lower: -53.6% for the first, 9.1% for the second.

First: O=C(COC(=O)C1CCCN1C(=O)OCc1ccccc1)c1ccc(-c2ccccc2)cc1 (stereo not given)
Second: COc1ccc(C2Nc3ccccc3C(=O)N2Cc2ccccc2)cc1Cn1nc(C)c([N+](=O)[O-])c1C (stereo not given)
The displacement of the first is higher: 11.7% for the first, 10.6% for the second.

Going from COc1ccc(C=NCC2OCCc3ccccc32)c(OC)c1 (stereo not given) to COc1ccc(OC)c(NC(=O)c2cc(-c3cccc(Br)c3)nc3ccccc23)c1, the displacement rises from 12.7% to 25.1%.

Going from COc1cccc(N2C(=O)c3ccc(C(=O)Nc4ccc(Br)cc4C(=O)O)cc3C2=O)c1 to Cc1ccnc(N2C(=O)c3ccc(C(=O)O)cc3C2=O)c1, the displacement rises from -7.7% to 1.9%.

First: CCc1ccc(OCc2nnc(NC(=O)Nc3ccc(Cl)c(Cl)c3)s2)cc1
Second: CCc1ccc(OCC(=O)Nc2ccc(I)cc2Cl)cc1
The displacement of the first is lower: 0.8% for the first, 18.1% for the second.

Going from Cc1cc(C)nc(NC(=O)CCC(=O)O)c1 to COc1ccc(OC)c(N(CC(=O)O)S(C)(=O)=O)c1, the displacement rises from -15.4% to -0.4%.

First: O=C(O)c1ccc(-c2nc3sc4c(c3c(=O)[nH]2)CCCC4)cc1
Second: O=C(O)c1ccc(/C=N/c2ncn[nH]2)cc1
The displacement of the first is lower: -7% for the first, 0.7% for the second.

Compared with Cc1cc(OCc2nc(-c3ccccc3)no2)cc(C)c1Cl, CC(C)Oc1ccc2c(-c3ccccc3)cc(=O)oc2c1 is higher in displacement: 1.9% for the first, 13.7% for the second.

Going from O=c1[nH]c(=O)n(-c2ccccc2)c(O)c1C(c1cccnc1)c1c(O)n(-c2ccccc2)c(=O)[nH]c1=O to CC1=NN(c2ccccc2)C(=O)C1C(c1ccccc1)C(C#N)C#N (stereo not given), the displacement rises from -5% to 4.6%.

Compared with C/C(=N\Nc1nc(-c2ccc(Br)cc2)cs1)c1nonc1C, CC(C)CSc1nnc(-c2ccc(Br)cc2)o1 is higher in displacement: -8.4% for the first, 13% for the second.

Compared with COC(=O)C1=C(C)NC(=O)CC1c1ccc(OC)cc1 (stereo not given), COc1ccc(NC(=O)C2CC(=O)N(c3ccc(Br)cc3)C2)cc1 (stereo not given) is higher in displacement: 6.5% for the first, 15.3% for the second.

First: C=CCc1cc(S(=O)(=O)c2ccc(O)c(CC=C)c2)ccc1O
Second: Cc1ccc(S(=O)(=O)Nc2cc(-c3cccc(C)c3)[nH]n2)cc1
The displacement of the first is lower: 0.9% for the first, 13.6% for the second.

First: COc1ccc(O)c(-c2c(-c3ccc(C)cc3)n[nH]c2C)c1
Second: COc1ccc(N(CC(=O)Nc2ccc(C(C)C)cc2)S(C)(=O)=O)cc1Cl
The displacement of the first is higher: 1% for the first, -3.1% for the second.

First: Cc1cc(C)n(-c2nc(N(C)C)nc(N(C)C)n2)n1
Second: Cc1cc2nc3s/c(=C\c4cc5c(cc4[N+](=O)[O-])OCO5)c(=O)n3c2cc1C
The displacement of the first is lower: -4.6% for the first, -0.7% for the second.

Compared with CCCOc1ccc(C(=O)NCCN2CCOCC2)c(O)c1, CN1CCN(CCCOc2ccc(Br)cc2)CC1 is lower in displacement: 5.7% for the first, -8.4% for the second.

Compared with O=C(CCNc1cccc(C(F)(F)F)c1)c1cccc([N+](=O)[O-])c1, Cc1ccc(S(=O)(=O)Nc2cccc3ccccc23)cc1[N+](=O)[O-] is higher in displacement: -13% for the first, 6.1% for the second.

Going from COc1ccccc1C(O)c1cnc(C(C)C)n1C (stereo not given) to CCOC(=O)C1=C(c2ccccc2)N=c2s/c(=C\c3ccco3)c(=O)n2C1c1cccc(OC)c1OC (stereo not given), the displacement rises from -8.5% to 76.4%.

First: O=C1/C(=C/c2c[nH]c3ccccc23)CCC/C1=C\c1c[nH]c2ccccc12
Second: CCC1=NN2C(=N)/C(=C/c3ccc(-c4ccccc4[N+](=O)[O-])o3)C(=O)N=C2S1
The displacement of the first is lower: -13.4% for the first, 1.5% for the second.

First: Oc1ccc(/C=N\Nc2cc(N3CCOCC3)nc(N3CCOCC3)n2)c(O)c1
Second: O=C(O)c1cc2nc(-c3ccc4c(c3)OCO4)cc(C(F)(F)F)n2n1
The displacement of the first is higher: 25% for the first, 7.3% for the second.

First: Cn1cccc1CN1CCN(Cc2ccncc2)CC1
Second: C1=CC2CC1CC2CN1CCN(Cc2c[nH]c3ccccc23)CC1 (stereo not given)
The displacement of the first is higher: -1.4% for the first, -2.2% for the second.

First: CCOc1cc(OCC)cc(C(=O)Nc2cc(Cl)cc(Cl)c2)c1
Second: CCOc1cc(OCC)cc(C(=O)Nc2cccc(S(N)(=O)=O)c2)c1
The displacement of the first is higher: 13.4% for the first, 8.5% for the second.

First: COc1cc(NC(=O)c2ccc(C)c([N+](=O)[O-])c2)ccc1NC(=O)c1ccco1
Second: COC(=O)c1sccc1NC(=O)COc1ccc(Cl)cc1
The displacement of the first is higher: 5.1% for the first, -6.5% for the second.

Compared with FC(F)C(F)(F)C(F)(F)C(F)(F)c1cc(-c2ccccc2)n[nH]1, COc1ccc(S(=O)(=O)Nc2ccc(Oc3ccccc3)cc2)cc1 is lower in displacement: 13.9% for the first, -4.9% for the second.

Going from COc1cccc(C2/C(=C(\O)c3ccc(Cl)cc3)C(=O)C(=O)N2CCCn2ccnc2)c1 (stereo not given) to Clc1cccc(C=Nc2ccc(N=Cc3cccc(Cl)c3Cl)cc2)c1Cl, the displacement falls from -5.2% to -14%.

First: CCOc1cc(-c2nnc(-c3ccc(Br)o3)o2)cc(OCC)c1OCC
Second: O=C(Nn1cnnc1)c1cccc(Cl)c1
The displacement of the first is higher: 22.7% for the first, 4.5% for the second.
